Experimental data as given in PubChem BioAssay AID662 (National Center for Advancing Translational Sciences (NCATS), 2007).
Screen size: about 71,000 compounds; about 1,800 (2.5%) were called active. Inconclusive means that the source gave no clear call. Such entries were picked first, then a sample of the others. Calls follow the shape of the dose curve; as a rule, active = well fitted activation curve with a large enough effect in the signal ratio, with a control signal flat (not every such curve was filed as active); inconclusive = small, poorly fitted or top-dose-only effect, or effect the other way, or a change in a side signal; inactive = flat fitted curve, though single readings scatter; the % refers to the signal ratio. Where the call is inconclusive, the potency comes from a doubtful curve fit.

assay: Cell signaling CRE-BLA (Fsk stim); settings: CHO CRE-bla reporter (cAMP response element driving beta-lactamase), forskolin EC10, beta-lactamase ratio; activity change, negative = inhibition: at 38.2 µM (top of the series) unless noted; as to activity change, negative = inhibition: % of control where 0% means no effect
Method in brief: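 CRE-bla CHO reporter cells treated with compound titration plus EC10 NKH 477 (water-soluble forskolin), incubated 3 h at 37 °C; CCF4 loading 2 h at room temperature, 460/530 nm emission ratio read, AC50 values derived for positive or negative modulators.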
Potency is read from the fitted curve at half-maximal effect; tags tell the direction and shape of the fitted curve.

Compound | activity change, negative = inhibition | Potency
N#CCSCC(=O)Nc1ccc(F)cc1 | inconclusive: -16.4% | 
Cc1noc(C)c1CSc1nc2ccccc2nc1NS(=O)(=O)c1ccc(Cl)cc1 | inconclusive: 14.1% | 
O=C(O)[C@@H](c1ccccc1)N1Cc2ccccc2C1=O | inactive | 
CCCCNc1nc(SC)nc2nc[nH]c12 |  | inconclusive: 3.98 µM [rising, single point]
CCOC(=O)Cc1csc(SCn2nnc3ccccc3c2=O)n1 | inconclusive: 7.3% | 
O=C(CCCC(=O)OCC(F)(F)C(F)F)Nc1nccs1 | inactive | 
CCCN(CCC)CCNC(=O)c1cc2c(C)nc3ccccc3c2o1 |  | inconclusive: 15.8 µM [rising, single point]
CC1(C)Cc2nc3oc4c(NCc5ccccc5)ncnc4c3cc2CO1 | inactive | 
O=C(c1cccs1)n1nc(-c2ccccc2)nc1NCc1ccco1 |  | inconclusive: 25.1 µM [rising, single point]
O=C(O)c1cccc(SSc2cccc(C(=O)O)c2)c1 | inactive: 7.98% [at 7.6 µM] | 
COc1ccc(NC(=O)N2CCCC3(CCN(C(=O)c4cc(C(F)(F)F)cc(C(F)(F)F)c4)CC3)C2)cc1 | inconclusive: 11.6% | 
CCOC(=O)c1cnc(SCC(=O)Nc2ccc(NC(C)=O)c(OC)c2)nc1N |  | inconclusive: 12.6 µM [rising, single point]
COCc1cc(C)[nH]c(=O)c1C#N | inconclusive: -27.6% [at 7.6 µM] | 
COc1ccccc1OC[C@H](O)COC(N)=O | inactive | 
COC(=O)CSc1nc(C2CC2)nc2ccccc12 |  | inconclusive: 10 µM [rising, single point]
COc1ccc2cc(C(c3nnnn3Cc3ccc(F)cc3)N3CCCCCC3)c(=O)[nH]c2c1 (configuration not stated) | inconclusive: 16.9% | 
CCCc1[nH]nc2c1C(C1CC=CCC1)C(C#N)=C(N)O2 (configuration not stated) | inconclusive: -29.3% | 
CCOC(=O)CSc1nc2cccnc2n1-c1ccc(F)cc1 |  | inconclusive: 12.6 µM [rising, partial curve]
CCN1CCN(C(c2cc3cc4c(cc3[nH]c2=O)OCO4)c2nnnn2C(C)(C)CC)CC1 (configuration not stated) | inactive | 
CCCCOc1ccc(-c2nnn(CC(=O)Nc3ncc(CC(=O)OCC)s3)n2)cc1 | inactive | 
O=S(=O)(O)CCN1CCOCC1 | inconclusive: 1.86% | 
O=C(c1c[nH]c(=O)n(-c2ccccc2)c1=O)N1CCc2ccccc21 | inactive | 
O=C(c1nn2c(C(F)(F)F)cc(-c3ccccc3)nc2c1Cl)N1CCOCC1 |  | inconclusive: 12.6 µM [rising, single point]
COc1ccc(-c2nc3cccc(C)n3c2NCc2ccco2)cc1OC | inactive | 
Nc1nc(N)nc(CCCc2nc(N)nc(N)n2)n1 | inactive: 10.6% [at 7.6 µM] | 
O=C(c1ccncc1)N1CCN(C(=O)c2cccs2)CC1 | inconclusive: -14.8% | 

Compound | activity change, negative = inhibition | Potency
O=C(Nc1ccc(F)cc1)N(Cc1ccco1)Cc1cc2cc3c(cc2[nH]c1=O)OCO3 |  | inconclusive: 12.6 µM [rising, partial curve]
CC(C)C(=O)N1CCc2cc(-c3csc(N)n3)ccc21 | inconclusive: 21.4% | 
Cc1cc(C)c(C)c(OCC(=O)NCc2nc(-c3ccccc3)no2)c1 | inactive | 
O=C(O)c1cc2nc3c(c(C(F)(F)F)n2n1)CCc1ccccc1-3 |  | inconclusive: 5.01 µM [rising, single point]
N#Cc1cccc(NC(=O)N2CCCC3(CCN(C(=O)c4ccco4)CC3)C2)c1 | inconclusive: 0.915% | 
COC(=O)c1ccc2c(c1)C(=O)N(C1CCCCC1)C2=O | inconclusive: -2.19% | 
CN(C)C(=O)c1ccc(-c2ccc3ncnc(NCc4cccnc4)c3c2)cc1 | inconclusive: 23.6% | 
COc1ccccc1NC(=O)CSCC(N)=O | inconclusive: 12.1% | 
COCc1cc(C)nc(N2CCc3ccccc32)c1C#N | inconclusive: 26.8% | 
c1cc2c(cc1Oc1nc(N3CCOCC3)nc(N3CCOCC3)n1)OCO2 | inconclusive: 3.34% | 
CCNc1ncc2nc(-c3ccc(Cl)cc3)c(=O)n(Cc3ccc(F)cc3)c2n1 |  | inconclusive: 1.26 µM [rising, partial curve]
Cn1c(C(=O)N2CCN(c3ccccn3)CC2)cc2c(=O)n(C)c3ccccc3c21 |  | inconclusive: 12.6 µM [rising, partial curve]
Cc1c(/C=N/n2cnnc2)c2ccccc2n1CCOc1ccc(Cl)cc1 |  | inconclusive: 12.6 µM [rising, partial curve]
Cc1ccc2cccc(Oc3nnnn3-c3ccccc3)c2n1 |  | inconclusive: 25.1 µM [rising, single point]
COc1ccc(CCNC(=O)c2cnn3cccnc23)cc1OC |  | inconclusive: 10 µM [rising, single point]
CC1CCC2C(C1)c1sc(=O)[nH]c1SC2(C)C (configuration not stated) |  | active: 10 µM
Cc1ccc(NC(=O)CN2CCC3(O)CCCCC3C2c2ccc3c(c2)OCO3)c(C)c1 (configuration not stated) | inconclusive: -1.6% | 
CN1CCN(c2ncc3nc(-c4cc(F)cc(F)c4)c(=O)n(CCc4ccccc4)c3n2)CC1 |  | inconclusive: 0.316 µM [rising, full curve]
COc1cccc(CC(NC(C)=O)C(=O)NC2CCN(c3c4c(nc5ncnn35)CCC4)CC2)c1 (configuration not stated) | inactive | 
CCN(CC(=O)Nc1ccc2c(c1)OCCO2)Cc1cc(=O)oc2cc(C)c(C)cc12 |  | inconclusive: 10 µM [rising, single point]
CC(C)(C)c1csc(NC(=O)c2cccs2)n1 | inactive | 
COc1cc2nc(N3CCN(C(=O)[C@@H]4COc5ccccc5O4)CC3)nc(N)c2cc1OC | inactive | 
Cc1cc2n(n1)C(c1sccc1C)Nc1ccccc1-2 (configuration not stated) |  | inconclusive: 12.6 µM [rising, partial curve]
CCCC(=O)c1ccc(N2CCN(S(=O)(=O)c3ccc(C)cc3)CC2)c(F)c1 |  | inconclusive: 3.98 µM [falling, single point]
CCOc1ccccc1Oc1cn[nH]c1-c1ccc(OC)cc1O | inconclusive: 19.6% | 
Cc1ccc(C2C3=C(CC(C)(C)CC3=O)Nc3n[nH]c(C)c32)cc1 (configuration not stated) | inconclusive: 9.45% | 
